In patent publication US20080280910A1, “PHTHALAZINONE DERIVATIVES” (priority 2007, published 2008):

Biological target: Mammalian PARP, isolated from Hela cell nuclear extract (Homo sapiens, UniProt P09874)
Assay: PARP inhibition assay (FlashPlate, 3H-NAD incorporation) to determine IC50
Assay type: biochemical
Details: mean IC50
Experimental: In order to assess the inhibitory action of the compounds, the following assay was used to determine IC50 values (Dillon, et al., JBS., 8(3), 347-352 (2003)).
All compounds were diluted in DMSO and gave final assay concentrations of between 10 and 0.01 μM, with the DMSO being at a final concentration of 1% per well. The total assay volume per well was 40 μL.
After 10 minutes incubation at 30° C. the reactions were initiated by the addition of a 10 μl reaction mixture, containing NAD (5 μM), ^3H-NAD and 30mer double stranded DNA-oligos. Designated positive and negative reaction wells were done in combination with compound wells (unknowns) in order to calculate % enzyme activities. The plates were then shaken for 2 minutes and incubated at 30° C. for 45 minutes.
Following the incubation, the reactions were quenched by the addition of 50 μl 30% acetic acid to each well. The plates were then shaken for 1 hour at room temperature.
The plates were transferred to a TopCount NXT (TRADE MARK) (Packard, UK) for scintillation counting. Values recorded are counts per minute (cpm) following a 30 second counting of each well.
The % enzyme activity for each compound is then calculated using the following equation: […]
IC50 values (the concentration at which 50% of the enzyme activity is inhibited) were calculated, which are determined over a range of different concentrations, normally from 10 μM down to 0.001 μM. Such IC50 values are used as comparative values to identify increased compound potencies.

| SMILES | IC50 |
| --- | --- |
| COC(=O)c1ccccc1-c1cccc(Cc2n[nH]c(=O)c3ccccc23)c1 [Compound 9] | 914 nM |
| COC(=O)c1ccc(-c2cccc(Cc3n[nH]c(=O)c4ccccc34)c2)cc1 [Compound 10] | 261 nM |
| O=c1[nH]nc(Cc2cccc(-c3ccccn3)c2)c2ccccc12 [Compound 17] | 196 nM |
| O=Cc1ccc(-c2cccc(Cc3n[nH]c(=O)c4ccccc34)c2)cc1 [Compound 21] | 196 nM |
| CC(=O)Nc1cccc(-c2cccc(Cc3n[nH]c(=O)c4ccccc34)c2)c1 [Compound 23] | 18 nM |
| O=c1[nH]nc(Cc2cccc(-c3ccsc3)c2)c2ccccc12 [Compound 24] | 105 nM |
| O=c1[nH]nc(Cc2cccc(-c3ccco3)c2)c2ccccc12 [Compound 28] | 39 nM |
| CC(=O)c1cccc(-c2cccc(Cc3n[nH]c(=O)c4ccccc34)c2)c1 [Compound 34] | 284 nM |
| O=Cc1ccccc1-c1cccc(Cc2n[nH]c(=O)c3ccccc23)c1 [Compound 39] | 201 nM |
| O=c1[nH]nc(Cc2cccc(-c3ccc(Cl)cc3)c2)c2ccccc12 [Compound 40] | 297 nM |
| O=c1[nH]nc(Cc2cccc(-c3cccc(CO)c3)c2)c2ccccc12 [Compound 42] | 60 nM |
| CC(=O)Nc1ccc(-c2cccc(Cc3n[nH]c(=O)c4ccccc34)c2)cc1 [Compound 43] | 65 nM |
| O=c1[nH]nc(Cc2ccc(F)c(-c3ccsc3)c2)c2ccccc12 [Compound 49] | 41 nM |
| O=c1[nH]nc(Cc2ccc(F)c(-c3cccc(CO)c3)c2)c2ccccc12 [Compound 51] | 29 nM |
| CC(=O)Nc1ccc(-c2cc(Cc3n[nH]c(=O)c4ccccc34)ccc2F)cc1 [Compound 52] | 75 nM |
| O=c1[nH]nc(Cc2ccc(F)c(-c3ccco3)c2)c2ccccc12 [Compound 53] | 14 nM |
| O=c1[nH]nc(Cc2ccc(F)c(-c3ccc(F)cc3)c2)c2ccccc12 [Compound 54] | 89 nM |
| N#Cc1cccc(-c2cc(Cc3n[nH]c(=O)c4ccccc34)ccc2F)c1 [Compound 55] | 279 nM |
| O=c1[nH]nc(Cc2ccc(F)c(-c3ccccc3Cl)c2)c2ccccc12 [Compound 56] | 218 nM |
| O=c1[nH]nc(Cc2ccc(F)c(-c3ccccc3)c2)c2ccccc12 [Compound 59] | 85 nM |
| O=c1[nH]nc(Cc2ccc(F)c(-c3ccc4[nH]ccc4c3)c2)c2ccccc12 [Compound 61] | 300 nM |
| COc1ccc(-c2cc(Cc3n[nH]c(=O)c4ccccc34)ccc2F)cc1 [Compound 64] | 114 nM |
| NC(=O)c1ccccc1-c1cc(Cc2n[nH]c(=O)c3ccccc23)ccc1F [Compound 65] | 904 nM |
| Nc1ccc(-c2cc(Cc3n[nH]c(=O)c4ccccc34)ccc2F)cc1 [Compound 66] | 38 nM |
| O=c1[nH]nc(Cc2ccc(F)c(-c3cccc(OCc4ccccc4)c3)c2)c2ccccc12 [Compound 68] | 489 nM |

| SMILES | IC50 |
| --- | --- |
| O=Cc1ccc(-c2cc(Cc3n[nH]c(=O)c4ccccc34)ccc2F)c2ccccc12 [Compound 69] | 720 nM |
| COC(=O)/C=C/c1ccc(-c2cc(Cc3n[nH]c(=O)c4ccccc34)ccc2F)cc1 [Compound 70] | 175 nM |
| O=c1[nH]nc(Cc2ccc(F)c(-c3ccc4c(c3)OCCO4)c2)c2ccccc12 [Compound 71] | 64 nM |
| O=c1[nH]nc(Cc2ccc(F)c(-c3cccc4c3CCO4)c2)c2ccccc12 [Compound 72] | 62 nM |
| NC(=O)c1cccc(-c2cc(Cc3n[nH]c(=O)c4ccccc34)ccc2F)c1 [Compound 74] | 287 nM |
| O=c1[nH]nc(Cc2ccc(F)c(-c3cccc4cnccc34)c2)c2ccccc12 [Compound 75] | 412 nM |
| CSc1cccc(-c2cc(Cc3n[nH]c(=O)c4ccccc34)ccc2F)c1 [Compound 78] | 511 nM |
| CSc1ccc(-c2cc(Cc3n[nH]c(=O)c4ccccc34)ccc2F)cc1 [Compound 79] | 149 nM |
| O=c1[nH]nc(Cc2ccc(F)c(-c3cccc(Cl)c3)c2)c2ccccc12 [Compound 83] | 316 nM |
| COCc1ccc(-c2cc(Cc3n[nH]c(=O)c4ccccc34)ccc2F)cc1 [Compound 87] | 275 nM |
| O=c1[nH]nc(Cc2ccc(F)c(-c3ccc4c(c3)OCCCO4)c2)c2ccccc12 [Compound 88] | 67 nM |
| COc1ccc(-c2cc(Cc3n[nH]c(=O)c4ccccc34)ccc2F)cc1F [Compound 89] | 338 nM |
| COc1ccccc1-c1cc(Cc2n[nH]c(=O)c3ccccc23)ccc1F [Compound 90] | 389 nM |
| COc1cccc(-c2cc(Cc3n[nH]c(=O)c4ccccc34)ccc2F)c1 [Compound 91] | 61 nM |
| CC(=O)Nc1ccccc1-c1cc(Cc2n[nH]c(=O)c3ccccc23)ccc1F [Compound 92] | 1300 nM |
| Cc1cccc(-c2cc(Cc3n[nH]c(=O)c4ccccc34)ccc2F)c1C [Compound 93] | 1130 nM |
| O=c1[nH]nc(Cc2cccc(-c3ccsc3)c2)c2c(F)ccc(F)c12 [Compound 103] | 403 nM |
| O=c1[nH]nc(Cc2cccc(-c3ccc(F)cc3)c2)c2c(F)ccc(F)c12 [Compound 105] | 452 nM |
| CC(=O)c1cccc(-c2cncc(Cc3n[nH]c(=O)c4ccccc34)c2)c1 [Compound 106] | 751 nM |
| O=c1[nH]nc(Cc2cncc(-c3cccc(CO)c3)c2)c2ccccc12 [Compound 107] | 198 nM |
| Nc1cccc(-c2cncc(Cc3n[nH]c(=O)c4ccccc34)c2)c1 [Compound 109] | 174 nM |
| O=c1[nH]nc(Cc2cncc(-c3ccc4c(c3)OCCO4)c2)c2ccccc12 [Compound 110] | 481 nM |
| CC1CCN(C(=O)c2cccc(-c3cncc(Cc4n[nH]c(=O)c5ccccc45)c3)c2)CC1 [Compound 112] | 1200 nM |
| O=C(c1cccc(-c2cncc(Cc3n[nH]c(=O)c4ccccc34)c2)c1)N1CCSCC1 [Compound 113] | 1260 nM |
| O=C(c1cccc(-c2cncc(Cc3n[nH]c(=O)c4ccccc34)c2)c1)N1CCCC1 [Compound 114] | 1330 nM |

| SMILES | IC50 |
| --- | --- |
| O=c1[nH]nc(Cc2cncc(-c3ccoc3)c2)c2ccccc12 [Compound 115] | 404 nM |
| O=c1[nH]nc(Cc2cncc(-c3ccco3)c2)c2ccccc12 [Compound 116] | 83 nM |
| CCN1CCN(C(=O)c2cccc(-c3cc(Cc4n[nH]c(=O)c5ccccc45)ccc3F)c2)CC1 [Compound 117] | 1100 nM |
| O=C(c1cccc(-c2cc(Cc3n[nH]c(=O)c4ccccc34)ccc2F)c1)N1CCN(CCO)CC1 [Compound 118] | 912 nM |
| CN1CCCN(C(=O)c2cccc(-c3cc(Cc4n[nH]c(=O)c5ccccc45)ccc3F)c2)CC1 [Compound 119] | 547 nM |
| CN1CCN(C(=O)c2cccc(-c3cc(Cc4n[nH]c(=O)c5ccccc45)ccc3F)c2)CC1 [Compound 120] | 1020 nM |
| O=C(c1cccc(-c2cc(Cc3n[nH]c(=O)c4ccccc34)ccc2F)c1)N1CCCN(CCO)CC1 [Compound 122] | 816 nM |
| O=C(c1cccc(-c2cc(Cc3n[nH]c(=O)c4ccccc34)ccc2F)c1)N1CCc2ccccc2C1 [Compound 123] | 125 nM |
| CN(C)CCNC(=O)c1cccc(-c2cc(Cc3n[nH]c(=O)c4ccccc34)ccc2F)c1 [Compound 124] | 353 nM |
| O=C(NCCN1CCCC1)c1cccc(-c2cc(Cc3n[nH]c(=O)c4ccccc34)ccc2F)c1 [Compound 125] | 258 nM |
| CN(C)CCN(C)C(=O)c1cccc(-c2cc(Cc3n[nH]c(=O)c4ccccc34)ccc2F)c1 [Compound 126] | 805 nM |
| CC(=O)Nc1cccc(-c2cc(Cc3n[nH]c(=O)c4ccccc34)ccc2F)c1 [Compound 127] | 9 nM |
| CN(C)CC(=O)Nc1cccc(-c2cc(Cc3n[nH]c(=O)c4ccccc34)ccc2F)c1 [Compound 128] | 79 nM |
| O=C(Nc1cccc(-c2cc(Cc3n[nH]c(=O)c4ccccc34)ccc2F)c1)c1ccco1 [Compound 129] | 26 nM |
| O=C(Nc1cccc(-c2cc(Cc3n[nH]c(=O)c4ccccc34)ccc2F)c1)c1ccccc1 [Compound 130] | 33 nM |
| O=C(Nc1cccc(-c2cc(Cc3n[nH]c(=O)c4ccccc34)ccc2F)c1)c1cnccn1 [Compound 131] | 104 nM |
| Cc1occc1C(=O)Nc1cccc(-c2cc(Cc3n[nH]c(=O)c4ccccc34)ccc2F)c1 [Compound 132] | 21 nM |
| Cn1nccc1C(=O)Nc1cccc(-c2cc(Cc3n[nH]c(=O)c4ccccc34)ccc2F)c1 [Compound 133] | 21 nM |
| O=C(Nc1cccc(-c2cc(Cc3n[nH]c(=O)c4ccccc34)ccc2F)c1)c1cccs1 [Compound 135] | 29 nM |
| O=C(Cc1cccnc1)Nc1cccc(-c2cc(Cc3n[nH]c(=O)c4ccccc34)ccc2F)c1 [Compound 136] | 7 nM |
| O=C(Nc1cccc(-c2cc(Cc3n[nH]c(=O)c4ccccc34)ccc2F)c1)c1ccc(F)cc1 [Compound 137] | 42 nM |
| Cc1cc(C(=O)Nc2cccc(-c3cc(Cc4n[nH]c(=O)c5ccccc45)ccc3F)c2)n(C)n1 [Compound 138] | 31 nM |
| O=C(Nc1cccc(-c2cc(Cc3n[nH]c(=O)c4ccccc34)ccc2F)c1)c1cccnc1F [Compound 139] | 39 nM |
| CN1CCC(C(=O)Nc2cccc(-c3cc(Cc4n[nH]c(=O)c5ccccc45)ccc3F)c2)CC1 [Compound 140] | 65 nM |
| O=C(CCc1ccccc1)Nc1cccc(-c2cc(Cc3n[nH]c(=O)c4ccccc34)ccc2F)c1 [Compound 141] | 29 nM |
